Out of some 310,000 compounds screened, about 2,200 (0.71%) showed an effect of 50% or more. Effects have a minus sign here. This is one part of the list.
The molecules below were run against human ether-à-go-go-related gene (hERG) potassium channel (human, UniProt Q12809) (assay: primary screen, population patch clamp on CHO cells stably expressing hERG).
human ether-à-go-go-related gene (hERG) potassium channel, sequence (Q12809 whole entry, looked up): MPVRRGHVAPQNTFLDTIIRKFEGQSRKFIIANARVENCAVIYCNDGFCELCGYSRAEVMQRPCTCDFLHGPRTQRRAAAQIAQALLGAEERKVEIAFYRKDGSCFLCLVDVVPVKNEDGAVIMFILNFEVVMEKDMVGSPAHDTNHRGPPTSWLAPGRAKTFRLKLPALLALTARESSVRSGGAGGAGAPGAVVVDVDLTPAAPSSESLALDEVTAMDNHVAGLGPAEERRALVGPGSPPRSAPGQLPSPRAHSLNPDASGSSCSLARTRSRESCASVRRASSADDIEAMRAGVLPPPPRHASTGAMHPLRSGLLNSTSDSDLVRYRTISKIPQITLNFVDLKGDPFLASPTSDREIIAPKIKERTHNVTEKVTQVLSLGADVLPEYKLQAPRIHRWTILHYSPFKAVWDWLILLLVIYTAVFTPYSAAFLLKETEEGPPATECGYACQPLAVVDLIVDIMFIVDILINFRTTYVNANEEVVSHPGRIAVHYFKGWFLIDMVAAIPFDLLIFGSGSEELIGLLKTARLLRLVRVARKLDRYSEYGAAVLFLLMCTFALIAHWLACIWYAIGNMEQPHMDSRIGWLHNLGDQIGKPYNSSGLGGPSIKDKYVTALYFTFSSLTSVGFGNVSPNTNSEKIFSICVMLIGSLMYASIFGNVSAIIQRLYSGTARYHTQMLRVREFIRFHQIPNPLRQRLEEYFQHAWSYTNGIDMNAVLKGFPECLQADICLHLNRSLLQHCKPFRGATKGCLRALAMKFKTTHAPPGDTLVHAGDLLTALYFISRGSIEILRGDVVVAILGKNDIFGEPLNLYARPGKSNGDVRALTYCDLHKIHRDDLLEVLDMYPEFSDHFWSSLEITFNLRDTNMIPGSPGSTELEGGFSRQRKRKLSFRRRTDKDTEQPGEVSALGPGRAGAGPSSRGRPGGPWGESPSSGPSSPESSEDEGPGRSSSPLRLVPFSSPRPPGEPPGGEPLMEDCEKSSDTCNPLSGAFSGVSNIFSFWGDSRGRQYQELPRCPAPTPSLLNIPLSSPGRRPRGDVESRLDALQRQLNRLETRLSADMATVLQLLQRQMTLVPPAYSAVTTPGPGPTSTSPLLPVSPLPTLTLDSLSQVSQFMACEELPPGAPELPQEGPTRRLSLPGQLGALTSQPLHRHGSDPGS

Compound | hERG current change (%, negative = inhibition) at 1uM
CCc1ccc(NC(=O)c2ccc(-n3cncn3)c([N+](=O)[O-])c2)cc1 | -5.68%
COc1ccc(C(=O)CCC(=O)O)cc1 | 5.41%
O=S(=O)(c1ccc(N2CCOCC2)nc1)N1CCOCC1 | 3.63%
O=C(O)C(=O)O.c1ccc(COc2ccc(OCCCNC3CCCC3)cc2)cc1 | 8.41%
Cc1ccc(S(=O)(=O)NCCNC(=O)N2CCOCC2)cc1 | 13%
CC(C)COc1nc2ccccc2nc1N1CCN(C)CC1 | -0.839%
CC(=O)Nc1cccc(C(=O)OCC(=O)NC(C)c2ccc(F)cc2)c1 (stereo not shown) | 16.1%
N#Cc1ccccc1NC(=O)CC1c2ccccc2Oc2ccccc21 | 2.03%
COc1ccc(NC(=O)C(=O)Nc2cccc3cccnc23)c(OC)c1 | 16.9%
COc1cc2c(cc1OC)C(c1ccccc1F)NCC2 (stereo not shown) | 11.9%
CC(C)(c1ccccc1)c1ccc(OCCN2CCOCC2)cc1.Cl | 8.5%
CCc1cccc(CC)c1NC(=S)NCc1ccc2[nH]c(C)cc2c1 | 12%
O=C(O)CCc1nn2c3ccccc3n(Cc3ccccc3F)c2nc1=O | 19.7%
C/C(=N\NC(=O)c1ccc(CSc2nc(C)cc(C)n2)cc1)C1CCCCC1 | 8.81%
Cn1ncc(Cl)c1C(=O)Nc1sc2c(c1C(N)=O)CCC2 | 1.63%
COC(=O)c1ccc(CN2CCN(C(C)C)C(CCO)C2)cc1 (stereo not shown) | 8.95%
CN(C)c1cccc(C(=O)NC2CCCCCC2)c1 | 11.9%
O=c1c(-c2ccccc2)c(O)c2c(n1-c1ccccc1)CCCC2 | 9.96%
COC(=O)C1=C(c2ccc(F)cc2OCc2ccccc2)C[C@@H]2CC[C@H]1N2C(=O)NCc1ccc(Cl)cc1 | 14.6%
CCOP(=O)(Oc1ccccc1)c1c([N+](=O)[O-])cc(C(F)(F)F)cc1[N+](=O)[O-] (stereo not shown) | 11.3%
O=C1CCN(S(=O)(=O)c2cc(C(F)(F)F)ccc2Cl)CC1 | 9.34%
Cc1[nH]n(-c2ccccc2)c(=O)c1/C=N/NC(=O)COc1ccccc1[N+](=O)[O-] | 15.1%

Compound | hERG current change (%, negative = inhibition) at 1uM
Cc1ccc(S(=O)(=O)C2(C(=O)Nc3nccs3)CC2)cc1 | 5.91%
CC(C)CC(C(=O)NC1CCCCC1)N(Cc1ccccc1)C(=O)c1snc(C(N)=O)c1N (stereo not shown) | 11.4%
O=C(c1cccc(NS(=O)(=O)c2ccccc2)c1)N1CCCC1 | 9.16%
O=C(Cn1ncn2c(cc3ccccc32)c1=O)NCCCc1ccccc1 | 14.7%
CN(C)N1C(=O)CC(N2CCCCC2)C1=O (stereo not shown) | 14.7%
Cc1nc2ccc(NC(=O)c3nn(CC(C)C)c(=O)c4ccccc34)cc2s1 | -3.68%
CC(C)COc1cccc(C(=O)NC(=S)Nc2cccc(NC(=O)c3ccccc3Cl)c2)c1 | 12.5%
[O-][Cl+3]([O-])([O-])[O-].c1ccc(-c2nc(N3CCOCC3)s[n+]2-c2ccccc2)cc1 | 11.3%
Cc1cc(=O)[nH]c(N2CCN(C(c3ccccc3)c3ccccc3)CC2)n1 | 14.8%
CN(C)c1ccc(C2Nc3ccccc3C(=O)N2NS(=O)(=O)c2ccccc2)cc1 (stereo not shown) | 13.4%
COCC(C)n1c(SCC(=O)Nc2ccc3c(c2)OCCO3)nc2ccccc2c1=O (stereo not shown) | 7.34%
S=C(Nc1ccccc1)N1CCCCCCC1 | 11.1%
CN(C)c1ccc(N2C(=NC(=O)CCC3CCCC3)SC3CS(=O)(=O)CC32)cc1 (stereo not shown) | 13.1%
O=C(NCCC1CCCCN1S(=O)(=O)c1ccccc1)C(=O)NCc1ccccn1 (stereo not shown) | 5.23%
COc1ccc(C)cc1NC(=S)NC(C)c1ccc(OC)c(OC)c1 (stereo not shown) | 2.73%
COCCCNS(=O)(=O)c1ccc(Oc2ncc(C(F)(F)F)cc2Cl)cc1 | 11.4%
O=C(O)C(=O)O.OC1CCCN(CC(O)COC(c2ccc(F)cc2)c2ccc(F)cc2)C1 (stereo not shown) | -14.2%
Brc1ccc(-c2noc(C3CCCCC3)n2)cc1 | 6.38%
O=C1/C(=C/c2ccccc2Cl)SC(=S)N1CCCC(=O)N(CCO)c1ccccc1 | -0.0098%
COc1cc(OC)cc(C(=O)OCCNC(=O)Cn2cnc3c2c(=O)n(C)c(=O)n3C)c1 | -8.43%
CC(=O)[C@@]1(O)CC[C@H]2[C@@H]3CCC4=CC(=O)CC[C@]4(C)[C@H]3[C@@H](O)C[C@@]21C | 20.7%
COc1cccc(C2=CC(=O)C[C@H](c3ccc4c(c3)OCO4)C2)c1 | 9.04%

Compound | hERG current change (%, negative = inhibition) at 1uM
COc1cccc(C(=O)Nc2ccc(NC(=O)c3ccco3)c(Cl)c2)c1 | 16.4%
Nc1nc(NC(=O)c2cccnc2)nn1-c1ccccc1 | 18.9%
Cc1ccc(C(C(=O)NC2CCCC2)N(C(=O)Cc2cccs2)c2cccc(C)c2C)o1 (stereo not shown) | 6.51%
Cc1cc(C)cc(N(CCC#N)C(=O)COC(=O)CCc2c[nH]c3ccccc23)c1 | -13.2%
CN=C(Nc1ccc(Cl)cc1)c1ccc(C(F)(F)F)cc1 | -2.59%
Cc1ccc2cccc(Oc3cnccn3)c2n1 | 10.7%
CC1CCCN(S(=O)(=O)c2ccc(C(=O)Nc3nnc(-c4ccncc4)o3)cc2)C1 (stereo not shown) | 13.9%
CCOC(=O)c1ccc(NC(=S)NCCC2=CCCCC2)cc1 | 33.9%
NC(=O)c1cc(-c2ccccc2)nc2ccc(Br)cc12 | 11.9%
Cc1cc(NC(=O)CS(=O)(=O)c2ccc(F)cc2)no1 | 4.74%
CC(=O)Nc1sc(N/N=C/c2ccc(C)cc2)nc1-c1ccc(C)cc1 | 6.64%
CCN1C(=O)CS/C1=N\S(=O)(=O)c1ccc(Cl)cc1 | 13.6%
Cc1ccccc1NC(=O)C(C)N1C(=O)c2ccccc2C1=O (stereo not shown) | 12.9%
O=C(NCCCc1ccccc1)c1ccccc1O | 3.2%
COc1ccc(-c2nn(-c3ccccc3)cc2CN(C)CCn2ccnc2C)c(F)c1 | -0.372%
Cc1ccc2[nH]c(=O)c(CN(Cc3ccccc3)Cc3nnnn3C3CCCC3)cc2c1 | 6.79%
N/C(=N\OC(=O)CCC1CCCCC1)c1cccc([N+](=O)[O-])c1 | 3.64%
C[n+]1ccccc1C1CCCC/C1=N\NC(N)=S.[Cl-] (stereo not shown) | 29.2%
CCn1ncc(C2=NOC(C(=O)Nc3ccccc3C(=O)OC)C2)c1C (stereo not shown) | 0.445%
O=[N+]([O-])c1ccccc1OCCN1CCCC1 | 11.7%
CC(=O)c1c(N2CCCCC2)nc(=O)n(-c2ccccc2)c1C | 15.4%
CCOc1ccc(CNCCCSc2ncccn2)cc1OC.Cl | 9.42%

Compound | hERG current change (%, negative = inhibition) at 1uM
Cc1ccc(N2C(=O)Nc3ccccc3C2(O)C(=O)N2CCN(c3ccccn3)CC2)cc1C (stereo not shown) | 4.92%
c1csc(-c2nnsc2-c2nc3ccccc3[nH]2)c1 | 8.15%
Cc1ccc(C2NC(=O)CCC2[N+](=O)[O-])cc1 (stereo not shown) | 11.6%
COc1ccc(-c2csc(NCc3ccco3)n2)cc1 | 6.85%
O=C(Nc1ccc2c3c(cccc13)CC2)c1cccc([N+](=O)[O-])c1 | 3.11%
Cc1cccc(NC(=O)CCCN=C2NS(=O)(=O)c3ccccc32)c1C | 13.9%
COc1ccc(Nc2oc(-c3ccccc3F)nc2C#N)cc1 | 19%
O=C1c2cccc(OCC(=O)N3CCCc4ccccc43)c2CCN1Cc1ccccc1 | 5.51%
C/C(=N\NC(=O)c1ccc([N+](=O)[O-])c(C)c1)c1ccccc1Cl | 2.86%
O=C(O)c1cc([N+](=O)[O-])c(Sc2nc3ccccc3[nH]2)c([N+](=O)[O-])c1 | 9.49%
Cc1ccc2c(C)[nH]c(=O)cc2c1 | -5.85%
Cc1cc(C)cc(NC(=O)CSc2nnc(Cn3c(=O)sc4ccccc43)n2C)c1 | 5.73%
CCN(c1ccccc1)c1nc(=O)c2cccnc2s1 | 5.88%
CCCCn1c(N)c(N(CCOC)C(=O)CSCc2c(C)noc2C)c(=O)[nH]c1=O | 14.6%
Cc1cnc(C(=O)OCC(=O)Nc2ccc(Oc3ccccc3)cc2)cn1 | 6.79%
COc1ccc2c(c1)nc(SCC(=O)C(C)(C)C)n2C | 8.92%
Cc1c(C(=O)NCCSc2ccc(Cl)cc2)cccc1[N+](=O)[O-] | 12.2%
COc1ccc(N2C(=O)C(CC(=O)Nc3ccccc3)N(CCc3ccc(OC)c(OC)c3)C2=O)cc1 (stereo not shown) | 6.87%
O=C(CCn1nnc2ccccc2c1=O)NCC1CCC(C(=O)O)CC1 (stereo not shown) | 8.53%
O=C(Nc1ccc(S(=O)(=O)N2CCOCC2)cc1)C1CC(=O)N(c2ccc(F)cc2)C1 (stereo not shown) | 16.2%
C=CCNC(=S)N/N=C(\C)c1cccnc1 | 2.38%
O=C(O)c1cccc(-c2nnn(Cc3ccccc3Cl)n2)c1 | -2.88%

Source: article PMC4336329 (PLoS ONE, 2015)
